Assay results as given in the supplement of paper PMC7125110.
Variants at the floor of the assay are shown more often than the library holds them.

B1: glmS ribozyme (parent)
chain: AUAAAAGCGCCAGAACUACAGAAAUGUAGUUGACGAGGAGGAGGUUUAUCGAAUUUUCGGCGGAUGCCUCCAAA

What was measured:
Settings in all cases: with glucosamine-6-phosphate
glucosamine-6-phosphate [1] = variants of: B1; assay: self-cleavage kobs at 640 uM GlcN6P; higher = faster cleavage; RNA array
In short: (§1)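 Weighted Michaelis–Menten fits across concentrations supplied kcat and KM, based on kobs from one- or two-exponential decay fits to normalised per-tile medians. The data came from barcoded ribozyme variants transcribed in situ by E. coli RNA polymerase on sequenced MiSeq chips and tracked at 37 °C by a hybridised Cy3 probe. Glucosamine-6-phosphate (40 μM to 10 mM) in HEPES/KCl/Mg(OAc)2 buffer was flowed in.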

glucosamine-6-phosphate [2] = variants of: B1; assay: self-cleavage kobs at 160 uM GlcN6P; higher = faster cleavage; RNA array
In short: as §1

glucosamine-6-phosphate [3] = variants of: B1; assay: self-cleavage kobs at 2500 uM GlcN6P; higher = faster cleavage; RNA array
In short: as §1

glucosamine-6-phosphate [4] = variants of: B1; assay: self-cleavage kobs at 10000 uM GlcN6P; higher = faster cleavage; RNA array
In short: as §1

Variant	self-cleavage kobs at 640 uM GlcN6P (glucosamine-6-phosphate [1]) [s⁻¹]	self-cleavage kobs at 160 uM GlcN6P (glucosamine-6-phosphate [2]) [s⁻¹]	self-cleavage kobs at 2500 uM GlcN6P (glucosamine-6-phosphate [3]) [s⁻¹]	self-cleavage kobs at 10000 uM GlcN6P (glucosamine-6-phosphate [4]) [s⁻¹]
G7A C58U	< 1e-05	< 1e-05	< 1e-05	< 1e-05
G7A G13A C34U G41C C58A G66U	< 1e-05	–	–	–
G7A G40U G43C U54G G66A	< 1e-05	–	< 1e-05	–
G7A G66A	< 1e-05	< 1e-05	–	–
G7A U31G G41U C68U	< 1e-05	–	–	–
G7C A14U C16G U30A U56A C67G	< 1e-05	< 1e-05	–	–
G7C G9U A36U	< 1e-05	< 1e-05	< 1e-05	–
G7C G13U A33U A39G G41A A48C A64C	< 1e-05	–	–	–
G7C G40C C50U	< 1e-05	–	–	–
G7C G41C G51C	< 1e-05	–	–	–
G7C G60A	< 1e-05	< 1e-05	< 1e-05	–
G7U A33G U56G	< 1e-05	–	–	–
G7U A39C U57G G63C C68U	< 1e-05	–	< 1e-05	–
G7U C8G	< 1e-05	–	< 1e-05	< 1e-05
G7U C11A G43A	< 1e-05	< 1e-05	–	–
G7U C11U G40U	< 1e-05	–	< 1e-05	–
G7U C16U A36G G51U C58G	< 1e-05	< 1e-05	–	–
G7U C61A	< 1e-05	< 1e-05	< 1e-05	–
G7U G43A G51U	< 1e-05	–	–	< 1e-05
G7U G66A C67U	< 1e-05	–	< 1e-05	–
G7U U57G	< 1e-05	< 1e-05	< 1e-05	–

Variant	self-cleavage kobs at 640 uM GlcN6P (glucosamine-6-phosphate [1]) [s⁻¹]	self-cleavage kobs at 160 uM GlcN6P (glucosamine-6-phosphate [2]) [s⁻¹]	self-cleavage kobs at 2500 uM GlcN6P (glucosamine-6-phosphate [3]) [s⁻¹]	self-cleavage kobs at 10000 uM GlcN6P (glucosamine-6-phosphate [4]) [s⁻¹]
C8A A12U U56G G66A	< 1e-05	–	–	–
C8A A39G C61U	< 1e-05	< 1e-05	–	–
C8A C11U A33C A39C G41C	< 1e-05	–	< 1e-05	–
C8A G9C G29C G35U	< 1e-05	–	< 1e-05	–
C8A G13A C61U G62C C70A	< 1e-05	–	< 1e-05	–
C8A G32C A48C	< 1e-05	–	< 1e-05	–
C8A G41A G44U U47G C68U	< 1e-05	–	< 1e-05	–
C8G C11G G43A	< 1e-05	< 1e-05	< 1e-05	–
C8G C34G G59U	< 1e-05	–	–	–
C8G G13A U54A G62A	< 1e-05	< 1e-05	–	–
C8G G40U G51A	< 1e-05	–	< 1e-05	–
C8G G41U G60U U65G	< 1e-05	< 1e-05	< 1e-05	–
C8G U46C	< 1e-05	< 1e-05	< 1e-05	–
C8G U47C A48U G62C	< 1e-05	–	–	–
C8G U56G C68G	< 1e-05	–	–	–
C8U A12U G51U	< 1e-05	–	< 1e-05	–
C8U A14C A15C	< 1e-05	–	–	–
C8U A33G A42U	< 1e-05	–	–	–
C8U A39G G59U	< 1e-05	–	< 1e-05	–
C8U A48G G62U	< 1e-05	–	< 1e-05	–
C8U C10G A14G G59A	< 1e-05	< 1e-05	–	–

Variant	self-cleavage kobs at 640 uM GlcN6P (glucosamine-6-phosphate [1]) [s⁻¹]	self-cleavage kobs at 160 uM GlcN6P (glucosamine-6-phosphate [2]) [s⁻¹]	self-cleavage kobs at 2500 uM GlcN6P (glucosamine-6-phosphate [3]) [s⁻¹]	self-cleavage kobs at 10000 uM GlcN6P (glucosamine-6-phosphate [4]) [s⁻¹]
C8U G13A U46A G51C G59A	< 1e-05	–	–	–
C8U G13U A14U	< 1e-05	–	–	–
C8U G63U U65C	< 1e-05	–	–	–
C8U U31G G35U G44A C70U	< 1e-05	–	< 1e-05	–
G9A A12U U49A	< 1e-05	–	< 1e-05	–
G9A A14C G63A	< 1e-05	–	–	–
G9A A48C G62U	< 1e-05	–	< 1e-05	–
G9A A48U C50A	< 1e-05	–	–	–
G9A C10A G13C G29C	< 1e-05	–	< 1e-05	–
G9A C50A G60U C67G	< 1e-05	–	–	–
G9A C61G G63U U65G C70A	< 1e-05	–	< 1e-05	–
G9A C68A U69C	< 1e-05	–	–	–
G9A G32C	< 1e-05	< 1e-05	–	< 1e-05
G9A G35U C71A	< 1e-05	–	< 1e-05	–
G9A G37U U54G	< 1e-05	–	< 1e-05	–
G9A G44U A52G U65G	< 1e-05	–	< 1e-05	–
G9A G59A	< 1e-05	–	–	–
G9A G66U C68G	< 1e-05	–	< 1e-05	–
G9A U65G C71G	< 1e-05	< 1e-05	< 1e-05	–
